Experimental data reported in ChEMBL document CHEMBL4888484, “Replenishing the malaria drug discovery pipeline: Screening and hit evaluation of the MMV Hit Generation Library 1 (HGL1) against asexual blood stage Plasmodium falciparum ,using a nano luciferase reporter read-out” (2022).
About 540 (0.36%) of roughly 150,000 compounds showed an effect of 50% or more. This is one part of the list.

system: Plasmodium falciparum; assay: Primary screen in NF54 nanoGlo assay, in single point, at 2uM, 72h; a lower Z score goes with more inhibition; type: functional, Erythrocyte; conditions: timepoint 72 hour

Row | SMILES | % Inhibition | Z score
1 | O=C(c1nc2ccccc2s1)N1CCNC[C@H](O)C1 | -14% | 1.28
2 | O=C(Nc1ccc(Cl)cc1O)c1cccn2c(Cc3ccccc3)nnc12 | -7% | 1.2
3 | CCC(CC)C(=O)N1CCC(NS(=O)(=O)CC2(C)CC2)CC1 | -3% | 0.42
4 | CN1CCC[C@H](C(=O)NCCN2Cc3cc(Cl)ccc3OCC2=O)C1 | -8% | 1.53
5 | COCCn1c(C)cnc1CCNC(=O)Nc1ccc2c(c1)OCCO2 | -2% | 0.33
6 | O=C(CCN1N=C(c2ccccc2)CCC1=O)NCc1ccccc1 | -16% | 2.61
7 | CCCN(C)C(=O)COc1ccc(NC(C)=O)cn1 | -21% | 3.58
8 | Cc1ccc(-n2ccc3nc(N4CCc5ccccc5C4)ncc3c2=O)cc1C | 39% | -4.99
9 | O=C(c1ccc(CS(=O)(=O)Cc2ccccc2F)o1)N1CCOCC1 | 0% | 0.06
10 | CN(c1ccc2ccccc2n1)S(=O)(=O)c1cccnc1 | -8% | 1.44
11 | Cc1ccc(Cn2c(=O)c(C(=O)N[C@@H](C)c3ccccc3)nn(-c3cc(C)cc(C)c3)c2=O)cc1 | 5% | -0.6
12 | Cc1ccc(C)c([C@H]2CC(=O)Nc3c2c(C)nn3-c2nncc(-c3ccccc3)n2)c1 | 13% | -2.38
13 | COc1cc(NC(=O)CCc2nc(CS(=O)(=O)c3ccc(C)cc3)no2)cc(OC)c1OC | 4% | -0.77
14 | CN1CCN(CC(=O)NCCc2ccc(F)cc2)C(C)(C)C1=O | -10% | 2.09
15 | C#CCN1CCN(C(=O)c2cc3c([nH]c2=O)CCCCC3)CC1 | -10% | 1.19
16 | Cn1cc(CNc2ccc3c[nH]nc3c2)cn1 | 31% | -0.37
17 | O=C1C2C3CCC(CC3)C2C(=O)N1c1ccccc1 (stereo unspecified) | -8% | 0.99
18 | O=C(NC[C@H]1CCCS1(=O)=O)N1CCc2cc(-c3ccccc3)oc2C1 | -12% | 1.21
19 | CCN1CCC[C@@H]1CNC(=O)c1c(C)c(S(=O)(=O)N2CCC(C)CC2)c(C)n1C | -4% | 0.78
20 | CCN1CN([C@@H](C)C(=O)N(C)C)CC1=O | -12% | 1.02
21 | C[C@@H](CC(=O)c1ccccc1)NC(=O)CNC(=O)C(C)(C)C | -5% | 0.75

Row | SMILES | % Inhibition | Z score
22 | CCOC(=O)c1nc2ccccc2nc1N1CCCN(S(=O)(=O)c2c(C)cc(C)cc2C)CC1 | -15% | 2.19
23 | Cn1cnc2ccc(-c3ccc4c(c3)CCN4)cc21 | -14% | 1.48
24 | Cc1cc(C)c(C(=O)O)cc1NC(=O)C[C@H]1CCCCO1 | 8% | -0.97
25 | Cc1nn(C)cc1-c1csc(NC(=O)c2ccccc2COc2ccc(F)cc2F)n1 | -18% | 2.67
26 | O=C(NCc1cccnc1)c1cccc(OCCc2ccccc2)c1 | -19% | 2.22
27 | O=C(NCc1ccco1)C(F)(F)C(F)(F)C(=O)NCc1ccco1 | -3% | 0.39
28 | CC(C)(C)c1ccc(Cn2cnc3c2c(=O)n(CCc2ccccc2)c(=O)n3-c2ccc(Cl)cc2)cc1 | -5% | 0.7
29 | Cc1nn(CC(=O)NCCCN2CCCC2=O)c(=O)c2nc(-c3ccccc3)sc12 | -18% | 2.46
30 | CCCOc1ccc(CN2CCO[C@]3(CCOC3)C2)cc1OCC | -13% | 1.56
31 | Cc1nc(CN[C@@H](C)CCn2ccnc2C)cs1 | -4% | 0.6
32 | CN(C)S(=O)(=O)NCCCC[C@H]1CCCO1 | -21% | 2.13
33 | CS(=O)(=O)CC1(CC(=O)N(CC#N)c2cccc(F)c2)CC1 | -12% | 1.27
34 | CC(C)c1cc(C(=O)N(C)Cc2csc(-c3ccccc3)n2)on1 | -20% | 2.18
35 | CCc1nc(N2CCC(C(=O)NCc3ccc(N(C)C)cc3)CC2)c2c(C)scc2n1 | 4% | -0.7
36 | Cc1cc(C(=O)NCc2ccccc2F)c2c(=O)n(C)c(=O)n(C)c2n1 | -9% | 1.18
37 | C[C@@H](CCN1CCCC1=O)NC(=O)Cc1cccc(O)c1 | -9% | 1.27
38 | CN(C(=O)Cn1ccc2ccccc2c1=O)c1ccccc1 | -1% | 0.24
39 | Cc1ccnc2ccc(C(=O)N3CC(n4ccnn4)C3)cc12 | 4% | -0.48
40 | Cc1cnc2c(Cl)c(C(=O)N3CCN4CCN(C)C(=O)[C@@H]4C3)nn2c1 | -12% | 2.33
41 | COCCCNC(=O)[C@]1(C)Cn2nc(-c3ccccc3)cc2C(=O)N1Cc1ccc(Cl)cc1 | 3% | -0.45
42 | Cc1cc2c(cc1C)O[C@H](C(=O)NCC1(c3ccccn3)CC1)C2 | -4% | 0.37

Row | SMILES | % Inhibition | Z score
43 | O=C(Cc1cccnc1)N[C@H]1CCCN(Cc2cccc(Cl)c2)CC1 | -12% | 1.63
44 | O=C(Nc1ccc(OCc2ccccc2)cc1)N[C@H]1CCOC1 | -15% | 1.92
45 | CCCn1cnnc1CN(C)Cc1ccncc1C | -11% | 1.06
46 | Cc1ccc(NC(=O)Cn2nc3ccc(C(=O)NCc4ccccc4)cn3c2=O)cc1 | -20% | 1.76
47 | O=C(N[C@@H](Cc1ccccc1)C(=O)N1CCc2ccccc2C1)c1cccnc1 | -8% | 1
48 | COCCNCCCOc1ccc(Br)cc1Cl | -12% | 1.67
49 | COC(=O)C1CC(Oc2ccccc2F)CN1C(=O)c1cnccn1 (stereo unspecified) | -4% | 0.68
50 | CC(C)C1CN(Cc2cnc3ccnn3c2)C1 | 2% | -0.32
51 | CN(C)S(=O)(=O)c1ccc(C(=O)N2C3CCC2CC(n2cncn2)C3)cc1 (stereo unspecified) | -9% | 1.09
52 | O=C(NCc1ccccc1OCC1CC1)c1c[nH]nc1C1CC1 | -2% | 0.16
53 | O=C(NC[C@H]1CCCO1)c1n[nH]c2c1CCCCCC2 | 1% | -0.09
54 | CC(=O)N1CCC(C(=O)N2CC[C@@H]3OCc4cccc(c4)Oc4ccc(cc4)CCC(=O)N(CCCO)CC(=O)N[C@H]3C2)CC1 | -6% | 1.21
55 | CC(C)C(NCC(O)C(F)(F)F)c1ccccn1 (stereo unspecified) | -10% | 1.78
56 | C/C(=C\c1ccco1)CN1CC[C@H](CNC(=O)c2ccc[nH]2)C1 | -10% | 1.92
57 | Cc1ncc(CN2CCC(n3nccc3NC(=O)[C@H]3CCOC3)CC2)s1 | -5% | 0.92
58 | O=C(C1CCN(c2ccc(-c3cccs3)nn2)CC1)N1CCCN(Cc2ccccc2Cl)C1 | -3% | 0.53
59 | Cc1nc(CNC(=O)N(C)CC2(c3ccccc3)CC2)no1 | -13% | 2.45
60 | O=C(Nc1ccc2c(c1)OCO2)N1CCCN(Cc2ccc(Cl)cc2)CC1 | -5% | 0.55
61 | CN=C(NCC1(c2cccc(F)c2)CC1)N(C)Cc1cnn(C)c1 | 3% | -0.39
62 | O=C(NCc1ccc(F)cc1F)[C@H]1C[C@@H](c2ccccc2)N2CCC[C@H]12 | 1% | -0.21
63 | CC1c2ccccc2CN1C(=O)C(C)n1nnnc1C(C)(C)C (stereo unspecified) | 4% | -0.59

Row | SMILES | % Inhibition | Z score
64 | O=C(CN1CCN(S(=O)(=O)c2ccc(F)cc2)CC1)Nc1ccc2c(c1)OCCO2 | 1% | -0.07
65 | CC1CCN(c2ccc(NC(=O)N3CCC[C@@H]3CO)cc2)C1 (stereo partly specified) | -23% | 2.11
66 | COc1ccccc1CCNC(=O)CC[C@@H](C)[C@H]1CC[C@H]2[C@@H]3[C@@H](O)C[C@@H]4C[C@H](O)CC[C@]4(C)[C@H]3CC[C@]12C | 3% | -0.6
67 | c1ccc2c(c1)CCC2NCC1CNc2ccnn2C1 (stereo unspecified) | 0% | -0.1
68 | O=C(c1cn2cc(-c3ccc(Cl)cc3)ccc2n1)N1CCC(Cc2ccccc2)CC1 | -5% | 0.56
69 | Cc1nn(C)c2nc(NCCC[C@H]3CCOC3)sc12 | -20% | 2.03
70 | Cc1cc(OC2CN(C(=O)c3ccc(=O)n(C)n3)C2)cc(=O)n1C | -13% | 1.48
71 | CC(C)Cn1ccnc1CNc1ncc(Br)cn1 | -9% | 1.01
72 | COc1ccc(-c2nc(COc3cc(C)c4c(C)nn(-c5ccccc5)c4n3)c(C)o2)c(OC)c1 | -8% | 0.78
73 | O=C(NC1CC1)[C@H]1CCCN(C2CCN(C(=O)Nc3ccccc3)CC2)C1 | -11% | 1.04
74 | O=C(c1ccc(C(F)(F)F)cc1)N1CC[C@H](n2cncn2)C1 | -4% | 0.39
75 | O=C(c1ccoc1)N1CCC(c2nc(CCC(F)(F)F)no2)CC1 | -7% | 0.83
76 | CC(C)N(CC(F)F)C(=O)NCc1ccco1 | -11% | 0.96
77 | O=C(c1cccc(-n2cncn2)n1)N1CC[C@@H]2CCC[C@@H]21 | -7% | 0.74
78 | O=S(=O)(Nc1cccc(O)c1)N1CCCC1 | 13% | -1.62
79 | CN(C)C(=O)NCc1cc2n(n1)CCCN(Cc1cccc3ncccc13)C2 | -11% | 1.58
80 | Cc1cccc(CN2CC[C@H](Oc3cncc(Br)c3)C2)n1 | -7% | 1.41
81 | CCN(C(=O)C1=CCCCCC1)[C@H]1CC(=O)NC1=O | -10% | 1.08
82 | CCc1cnc(CNC(=O)N(Cc2cc(F)ccc2F)C2CCCC2)s1 | 0% | 0.05
83 | Cn1cccc(C(=O)N2CCCC[C@H](c3ccc(F)cc3)C2)c1=O | -12% | 1.89
